Data on 3 molecules can be found in ChEMBL document CHEMBL1140645, “Synthesis and in vitro activity of 2-thiazolylhydrazone derivatives compared with the activity of clotrimazole against clinical isolates of Candida spp” (Bioorg Med Chem Lett, 2007).

In brackets after ≈: the same amount, converted by molar mass.

The subject of data set [1] is [Candida] sake. As to the kind of experiment: Antifungal activity against Candida sake after 24 hrs by broth microdilution method. Conditions: Fermentozyma sake. Type of data set: functional. A general note: Dilution methods test growth across graded concentrations, often in twofold steps.
For data set [2], the system named is Candida parapsilosis. The experiment in a line: Antifungal activity against Candida parapsilosis after 24 hrs by broth microdilution method. Format: functional. The settings on record: Lodderomyces parapsilosis.
Data set [3] has as its system Nakaseomyces glabratus. As to the kind of experiment: Antifungal activity against Candida glabrata after 24 hrs by broth microdilution method. Type of data set: functional.
Data set [4] can be described thus: Cytotoxicity against human EAhy926 cells assessed as cell survival fraction at 5 ug/ml after 24 hrs by trypan blue exclusion test. The settings on record: ea.hy 926, at 5 µg/mL.
In data set [5] the test system is Candida tropicalis. The experiment in a line: Antifungal activity against Candida tropicalis after 24 hrs by broth microdilution method. Format: functional.
Data set [6] is described as follows: Cytotoxicity against human EAhy926 cells assessed as cell survival fraction at 0.05 ug/ml after 24 hrs by trypan blue exclusion test. The settings on record: ea.hy 926, at 0.05 µg/mL.
The nature of data set [7]: Cytotoxicity against human EAhy926 cells assessed as cell survival fraction at 0.5 ug/ml after 24 hrs by trypan blue exclusion test. Conditions: ea.hy 926, at 0.5 µg/mL.
Data set [8] relates to Candida albicans. As to the kind of experiment: Antifungal activity against Candida albicans after 24 hrs by broth microdilution method. Type of data set: functional.
Data set [9] can be described thus: Cytotoxicity against human EAhy926 cells assessed as cell survival fraction at 50 ug/ml after 24 hrs by trypan blue exclusion test. The settings on record: ea.hy 926, at 50 µg/mL.
Data set [10] deals with Pichia kudriavzevii. As to the kind of experiment: Antifungal activity against Candida krusei after 24 hrs by broth microdilution method. Format: functional.

For `Cc1ccc(-c2csc(N/N=C3\CCCCC3C)n2)cc1` (stereo unspecified), the MIC came out at 32 µg/mL (≈ 107 µM) in data set [1]; 8 µg/mL (≈ 26.7 µM) in [2]; 0.5 µg/mL (≈ 1.67 µM) in data set [3]; 2 µg/mL (≈ 6.68 µM) in data set [5]; 0.25 µg/mL (≈ 0.835 µM) in data set [8]; 64 µg/mL (≈ 214 µM) in [10]. In addition, the viability at 24 h, 5 ug/ml in [4] amounted to 63.6%. In data set [6], the viability at 24 h, 0.05 ug/ml amounted to 85.7%. Further, the viability at 24 h, 0.5 ug/ml in data set [7] turned out to be 78.5%. The viability at 24 h, 50 ug/ml in [9] amounted to 64%.
As to `CC1CCC(=NNc2nc(-c3ccc(Cl)cc3)cs2)CC1` (stereo unspecified), the MIC in data set [1] is 2 µg/mL (≈ 6.25 µM); in [2], 8 µg/mL (≈ 25 µM); in data set [3] it was 32 µg/mL (≈ 100 µM); in [5], 2 µg/mL (≈ 6.25 µM); in data set [8], 0.5 µg/mL (≈ 1.56 µM); in [10], 0.5 µg/mL (≈ 1.56 µM).
For the molecule `COc1ccc(-c2csc(N/N=C3\CCCCC3C)n2)cc1` (stereo unspecified), the MIC in data set [1] was 32 µg/mL (≈ 101 µM); in [2], 8 µg/mL (≈ 25.4 µM); in data set [3], 0.25 µg/mL (≈ 0.793 µM); in data set [5], 8 µg/mL (≈ 25.4 µM); in [8], 0.5 µg/mL (≈ 1.59 µM); in data set [10], 16 µg/mL (≈ 50.7 µM). For the same molecule, the viability at 24 h, 5 ug/ml in data set [4] was found to be 83.3%. Also, in [6], the viability at 24 h, 0.05 ug/ml worked out at 86%. In addition, the viability at 24 h, 0.5 ug/ml in [7] was 84%. Further, the viability at 24 h, 50 ug/ml in data set [9] is 75%.

The term MIC denotes the lowest concentration found to suppress growth. Read a high MIC as a need for much substance. In general, viability refers to a per cent measure of how many cells are alive, often set against a control.
